# PubChem BioAssay AID624296 (National Center for Advancing Translational Sciences (NCATS), 2012)
# Screen size: about 350,000 compounds; about 9,900 (2.8%) were called active. The inconclusive results got no clear call from the source; some entries with a clear call stand among them for comparison. Calls come from the whole dose curve; as a rule, active = well fitted activation curve with a large enough effect; inconclusive = small, poorly fitted or top-dose-only effect; inactive = no such curve, though single readings can be large or run the other way. No potency is given beside an inconclusive call; the fits are too rough.
# Test: A quantitative high throughput screen for small molecules that induce DNA re-replication in MCF 10a normal breast cells. For activity, positive = re-replication: % of control where 0% means no effect. Note: nearly all actives have a fitted effect of over 50% in size.
# Details: MCF 10A DNA re-replication, Hoechst nuclear intensity, 48 h; activity, positive = re-replication: at 46.1 µM (top of the series)
# Potency is the fitted concentration of half-maximal effect; tags give direction and shape of the fitted curve.
SMILES,"activity, positive = re-replication",Potency
CN(CC(=O)NCc1ccco1)CC(=O)Nc1ccc(F)c(F)c1F,inactive: -52.5%,
CCN=C1Cn2c(nc3scc(-c4ccccc4)c3c2=O)CN1CC,,"inconclusive [activator, single point]"
CC(C)(C)NC(=O)c1ccc2c(c1)N(CC(=O)N1CCCC1)C(=O)C(C)(C)O2,,"inconclusive [activator, full curve, poor fit]"
COc1ccc(Nc2nc(Nc3ccc(OC)cc3OC)nc(N3CCN(C)CC3)n2)c(OC)c1,,"inconclusive [activator, single point]"
COc1ccc(NC(=O)Cc2ccc(-c3ccccc3)cc2)cn1,,"inconclusive [activator, partial curve]"
Cc1ccccc1-n1ncc(C(C)NS(=O)(=O)c2sccc2C)c1C (centres undefined),,"inconclusive [activator, single point]"
CCOC(=O)C1CCCN(C(=O)c2cc(S(=O)(=O)N3CCCCC3)ccc2Cl)C1 (centres undefined),,"inconclusive [activator, single point]"
CN(C)CC1CCC/C(=C\c2ccc(OC(=O)c3ccc(Cl)cc3)cc2)C1=O (centres undefined),,"inconclusive [activator, partial curve, poor fit]"
CCN1C(=O)[C@H]2[C@@H](c3ccc(-c4cccc(Cl)c4)c(OC)c3)N3CCC[C@@]3(C(=O)OC)[C@H]2C1=O,inactive: 18.7%,
O=C(c1ccc(Cl)cc1)c1c[nH]c(C(=O)C(Cl)(Cl)Cl)c1,,"inconclusive [activator, single point]"
Cn1c(SCC(=O)NCc2ccccc2)ncc(C(=O)Nc2ccccc2)c1=O,,"inconclusive [activator, partial curve, poor fit]"
CCc1nnc(NC(=O)C2CSC3(C)CCC(=O)N23)s1 (centres undefined),,"inconclusive [activator, single point]"
COc1ccc2sc(-c3ccccc3OC)c(-c3ccc(OCCN4CCCC4)cc3)c2c1,,"inconclusive [activator, full curve, poor fit]"
O=C(N=Nc1c(O)[nH]c2ccc([N+](=O)[O-])cc12)c1cc(-c2ccccc2Cl)nc2ccccc12,,"inconclusive [activator, single point]"
COc1ccc(OCCn2c(N)nc3ccccc32)cc1,,"inconclusive [activator, partial curve, poor fit]"
CC(C)NS(=O)(=O)c1ccc(OCC(=O)N2CCCC2)cc1,,"inconclusive [activator, single point]"
Cc1cc(Cl)ccc1NC(=O)CN1CCC(C(O)(c2ccccc2)c2ccccc2)CC1,,"inconclusive [activator, single point]"

SMILES,"activity, positive = re-replication",Potency
Cc1cccc(OCC(=O)NNC(=O)C2CCN(c3ncnc4sc(C)c(C)c34)CC2)c1,,"inconclusive [activator, partial curve, poor fit]"
Cc1ccc(S(=O)(=O)NCc2ccccc2)cc1C(=O)N1CCN(c2ccccc2)CC1,,"inconclusive [activator, single point]"
CCOc1ccc(NC(=O)c2sc3nc(N4CCOCC4)c4c(c3c2N)CCCC4)cc1,,active: 23.1 µM
Cn1cc(CN2CCc3c([nH]c4ccccc34)C2C2CCCCC2)cn1 (centres undefined),,"inconclusive [activator, partial curve, poor fit]"
Cc1ccc(NC(=O)CN(C)S(=O)(=O)c2ccc3[nH]c(=O)oc3c2)c(C)c1,inactive: -0.969%,
Cc1ccc(-n2[nH]c(C)c(/C=N/Nc3ccc([N+](=O)[O-])cc3[N+](=O)[O-])c2=O)cc1C,,active: 14.6 µM
CN[C@H]1[C@H](O)[C@@H](O[C@@H]2[C@H](O)[C@@H](O[C@H]3OC(CN)=CC[C@H]3N)[C@@H](N)C[C@H]2N)OC[C@@]1(C)O,inactive: 2.54% [at 20.6 µM],
COc1ccc(-c2noc(CCC(=O)NCc3cccnc3)n2)cc1,inactive: -0.542%,
O=C(NC1CCCCC1)c1cc(C(=O)c2ccccc2Br)c[nH]1,,"inconclusive [activator, partial curve, poor fit]"
c1ccc(-c2noc(-c3cccnc3)n2)nc1,inactive: -3%,
COc1ccc(N=Cc2ccccc2O)cc1,inactive: -8.41%,
O=c1[nH]nc(Cc2ccccc2)c2ccccc12,,"inconclusive [activator, partial curve, poor fit]"
O=C(CSc1nnc2c(n1)[nH]c1ccc(S(=O)(=O)N3CCOCC3)cc12)Nc1ccc(F)c(F)c1,,"inconclusive [activator, partial curve, poor fit]"
CCn1c(=O)c(C(=O)Nc2cccnc2)c(O)c2ccccc21,inactive: 2.09%,
CCN1c2ccccc2NC2C1C(C(C)=O)C(=O)N2c1ccc(Cl)cc1 (centres undefined),,active: 2.91 µM
Cc1cc(C)c2sc(N(CCCN(C)C)C(=O)CN3C(=O)c4ccccc4C3=O)nc2c1,,"inconclusive [activator, single point]"
Cc1ccc(CN2CCN(CCCc3ccccc3)CC2CCO)cc1 (centres undefined),inactive: 20.7%,
